Experimental data taken from the supplement of paper PMC10502849.
Counter-ions that a name gives are not always drawn. The list shows a part of the results. Many values rest on one well or one pass, so single values are uncertain.

Experiments:
[1] = test system: H9 teratoma-derived LAM model cells, TSC2-/-; assay: percent SyTOX+ dead cells; higher = more cytotoxic; conditions: 5 µM, treatment time 72 h, culture: 3D hyaluronic acid hydrogel
[2] = test system: H9 teratoma-derived LAM model cells, WT; assay: percent SyTOX+ dead cells; higher = more cytotoxic; conditions: 5 µM, treatment time 72 h, culture: 3D hyaluronic acid hydrogel, genotype: WT
[3] = test system: H9 teratoma-derived LAM model cells, TSC2-/-; assay: percent of cells invaded past median invasion distance of vehicle control; LAM is lymphangioleiomyomatosis; the cells come from teratomas of the human stem cell line H9; higher = more invasion; extreme values may be limits of the assay; conditions: 5 µM, treatment time 72 h, culture: 3D hyaluronic acid hydrogel
[4] = test system: H9 teratoma-derived LAM model cells, WT; assay: as above; conditions: 5 µM, treatment time 72 h, culture: 3D hyaluronic acid hydrogel, genotype: WT
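For percent SyTOX+ dead cells in this document: cells seeded atop a hyaluronic acid gel crosslinked via MMP-cleavable peptides, containing vitronectin peptides and methylcellulose, imaged live by high-content microscopy with automated analysis, one technical replicate per compound.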
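For percent of cells invaded past median invasion distance of vehicle control in this document: live cells imaged by high content microscopy and scored with in-house automated image analysis, one technical replicate per compound in each genotype and rapamycin condition.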

SMILES | percent SyTOX+ dead cells ([1]; rapamycin 0 nM) [%] | percent SyTOX+ dead cells ([1]; rapamycin 20 nM) [%] | percent SyTOX+ dead cells ([2]; rapamycin 0 nM) [%] | percent SyTOX+ dead cells ([2]; rapamycin 20 nM) [%] | percent ([3]; rapamycin 0 nM) [%] | percent ([3]; rapamycin 20 nM) [%] | percent ([4]; rapamycin 0 nM) [%] | percent ([4]; rapamycin 20 nM) [%]
COc1ccc(-c2ccc3c(N4CCOCC4)nc(N4C[C@@H](C)O[C@@H](C)C4)nc3n2)cc1CO | 12.1 | 6.94 | 21.3 | 16.7 | 19.9 | 26.1 | 13 | 31
CCN(CC)Cc1ccc2cc(COC(=O)Nc3ccc(C(=O)NO)cc3)ccc2c1 [ITF2357, ITF-2357, Givinostat hydrochloride] | 34.9 | 18.8 | 31.3 | 7.99 | 4.41 | 3.59 | 0 | 2.07
Cc1nc2ccc(NC(=O)Nc3ccnc4cccnc34)cc2o1 | 13.4 | 13.4 | 6.29 | 9.06 | 36.6 | 25.6 | 49.1 | 22.6
O=C(CCCCCN1C(=O)c2cccc3cccc(c23)C1=O)NO | 10.9 | 10.3 | 14.7 | 16.7 | 64.6 | 56.4 | 54.9 | 42.3
COc1c(O)c2c(=O)cc3c4c5c(cc(=O)c6c(O)c(OC)c(CC(C)O)c(c(c1CC(C)O)c24)c65)OCO3 (stereo unspecified) [Cercosporin from Cercospora hayii] | 90.6 | 88.7 | 92.2 | 72.1 | 66.5 | 30.7 | 56.7 | 64.4
COc1cc(OC2CCN(C)CC2)ccc1Nc1ncc2c(n1)n(C1CCCC1)c(=O)n2C | 13.1 | 21.6 | 28.3 | 36.6 | 61.6 | 56.4 | 34.5 | 15.7
Cn1cc(/C=C/C(=O)c2cccc(F)c2)cc1/C=C/C(=O)NO | 21.4 | 43.5 | 39.9 | 26.8 | 71 | 40.3 | 25.3 | 35
CN(C)CC(=O)Nc1ccc2[nH]c(=O)c3ccccc3c2c1 [PJ-34 hydrochloride hydrate] | 13.1 | 13.1 | 10.7 | 12.2 | 73.4 | 48.3 | 69.9 | 66.3
Nc1ccc(C(=O)Nc2cccc(-c3nc(N4CCOCC4)c4oc5ncccc5c4n3)c2)cn1 | 29.1 | 18.9 | 44.3 | 35.7 | 35.2 | 77.5 | 37.7 | 72.4
CC(=O)Nc1nc(C)c(-c2ccc(Cl)c(S(=O)(=O)NCCO)c2)s1 | 22.6 | 21.7 | 25.8 | 18.7 | 22.6 | 30.1 | 5.73 | 33.6
O=C(Nc1ccc([N+](=O)[O-])cc1Cl)c1cc(Cl)ccc1O [Niclosamide] | 28.1 | 12.7 | 22.6 | 2.79 | 26.1 | 25.7 | 1.41 | 9.78
Nc1nccc(-c2c(-c3ccc(F)cc3)ncn2C2CCCCC2)n1 | 13.6 | 8.16 | 22.9 | 17.2 | 15.4 | 6.8 | 5.08 | 16.6
